Source: a collection of fitness landscapes (doi:10.1126/science.1257360)
This is one part of the list.

B1: PhoQ; a variant is named by its letters at X, in order, P23837 (parent)
chain: MKKLLRLFFPLSLRVRFLLATAAVVLVLSLAYGMVALIGYSVSFDKTTFRLLRGESNLFYTLAKWENNKLHVELPENIDKQSPTMTLIYDENGQLLWAQRDVPWLMKMIQPDWLKSNGFHEIEADVNDTSLLLSGDHSIQQQLQEVREDDDDAEMTHSVAVNVYPATSRMPKLTIVVVDTIPVELKSSYMVWSWFIYVLSANLLLVIPLLWVAAWWSLRPIEALAKEVRELEEHNRELLNPATTRELTSLVRNLNRLLKSERERYDKYRTTLTDLTHSLKTPLXXLQXXLRSLRSEKMSVSDAEPVMLEQISRISQQIGYYLHRASMRGGTLLSRELHPVAPLLDNLTSALNKVYQRKGVNISLDISPEISFVGEQNDFVEVMGNVLDNACKYCLEFVEISARQTDEHLYIVVEDDGPGIPLSKREVIFDRGQRVDTLRPGQGVGLAVAREITEQYEGKIVAGESMLGGARMEVIFGRQHSAPKDE

Variants of: B1
Experiment: enrichment ratio after two sorts for PhoP signalling (ratio (wild type AVST 3.29)); higher = more functional
Conditions: with PhoP (E. coli)
In the case of VGSM, the enrichment ratio is reported as 1.7. For CMSP, the enrichment ratio was ≤ 0.25. REND was tested, and the enrichment ratio was ≤ 0.25. With GQHC the enrichment ratio was ≤ 0.25. In the case of PAFS, the enrichment ratio is reported as ≤ 0.25. With PEGH the enrichment ratio was ≤ 0.25. MMKD was tested, and the enrichment ratio was ≤ 0.25. With STFP the enrichment ratio was ≤ 0.25. In the case of VNLF, the enrichment ratio is reported as ≤ 0.25. In the case of FKWM, the enrichment ratio is reported as ≤ 0.25. In the case of QSCF, the enrichment ratio is reported as ≤ 0.25. For HDAE, the enrichment ratio was ≤ 0.25. QQTC was tested, and the enrichment ratio was ≤ 0.25. In the case of NGVG, the enrichment ratio is reported as ≤ 0.25. For LGTM, the enrichment ratio was ≤ 0.25. For GFDQ, the enrichment ratio was ≤ 0.25. MKQG was tested, and the enrichment ratio was ≤ 0.25. With FPVN the enrichment ratio was ≤ 0.25. FQCD was tested, and the enrichment ratio was ≤ 0.25. HRKV was tested, and the enrichment ratio was ≤ 0.25. MWSL was tested, and the enrichment ratio was ≤ 0.25. THGP was tested, and the enrichment ratio was ≤ 0.25. In the case of VLMW, the enrichment ratio is reported as ≤ 0.25. With LCQW the enrichment ratio was ≤ 0.25. In the case of PWNK, the enrichment ratio is reported as ≤ 0.25. With NNDS the enrichment ratio was ≤ 0.25. In the case of AITM, the enrichment ratio is reported as 23.3. SCWT was tested, and the enrichment ratio was ≤ 0.25. Variant TMSV has an enrichment ratio of 16.5. Variant TSML has an enrichment ratio of 17.8. With PNGS the enrichment ratio was ≤ 0.25. In the case of EPMS, the enrichment ratio is reported as ≤ 0.25. For SFWG, the enrichment ratio was ≤ 0.25. With YSVA the enrichment ratio was ≤ 0.25. KNRF was tested, and the enrichment ratio was ≤ 0.25. VDRV was tested, and the enrichment ratio was ≤ 0.25. NKTQ was tested, and the enrichment ratio was ≤ 0.25. For RFDT, the enrichment ratio was ≤ 0.25. With SYTM the enrichment ratio was ≤ 0.25. SPPL was tested, and the enrichment ratio was ≤ 0.25. For QPRG, the enrichment ratio was ≤ 0.25. For CIKL, the enrichment ratio was ≤ 0.25. FYSI was tested, and the enrichment ratio was ≤ 0.25. With PGFC the enrichment ratio was ≤ 0.25. With VPKP the enrichment ratio was ≤ 0.25. For IIPP, the enrichment ratio was ≤ 0.25. HCPT was tested, and the enrichment ratio was ≤ 0.25. DAYW was tested, and the enrichment ratio was ≤ 0.25. In the case of SQSR, the enrichment ratio is reported as ≤ 0.25. With DHCS the enrichment ratio was ≤ 0.25. EPCQ was tested, and the enrichment ratio was ≤ 0.25. In the case of DCTK, the enrichment ratio is reported as ≤ 0.25. ENRM was tested, and the enrichment ratio was ≤ 0.25. With VYSW the enrichment ratio was ≤ 0.25. PINC was tested, and the enrichment ratio was ≤ 0.25. With QARR the enrichment ratio was ≤ 0.25. FVMH was tested, and the enrichment ratio was ≤ 0.25. DAHI was tested, and the enrichment ratio was ≤ 0.25. In the case of TASS, the enrichment ratio is reported as 13.4. IKDR was tested, and the enrichment ratio was ≤ 0.25. With PNVE the enrichment ratio was ≤ 0.25. With HQAD the enrichment ratio was ≤ 0.25. In the case of NSNQ, the enrichment ratio is reported as ≤ 0.25. Variant QCAL has an enrichment ratio of 1.33. In the case of QCTF, the enrichment ratio is reported as ≤ 0.25. With DRMD the enrichment ratio was ≤ 0.25. For IYMT, the enrichment ratio was ≤ 0.25. GEYA was tested, and the enrichment ratio was ≤ 0.25. In the case of PQDH, the enrichment ratio is reported as ≤ 0.25. KMFL was tested, and the enrichment ratio was ≤ 0.25. For VSRR, the enrichment ratio was ≤ 0.25. In the case of FYQP, the enrichment ratio is reported as ≤ 0.25. ISKK was tested, and the enrichment ratio was ≤ 0.25. With SHQC the enrichment ratio was ≤ 0.25. For YHWV, the enrichment ratio was ≤ 0.25. PRFT was tested, and the enrichment ratio was ≤ 0.25. For GYHS, the enrichment ratio was ≤ 0.25. In the case of NSQY, the enrichment ratio is reported as ≤ 0.25. In the case of VADG, the enrichment ratio is reported as ≤ 0.25. ILVN was tested, and the enrichment ratio was ≤ 0.25. Variant TCDS has an enrichment ratio of 1.7. For QWMP, the enrichment ratio was ≤ 0.25. DWPN was tested, and the enrichment ratio was ≤ 0.25. With WFWG the enrichment ratio was ≤ 0.25. YCGE was tested, and the enrichment ratio was ≤ 0.25. With RCYF the enrichment ratio was ≤ 0.25. For TRQD, the enrichment ratio was ≤ 0.25. With DAIW the enrichment ratio was ≤ 0.25. In the case of RFDQ, the enrichment ratio is reported as ≤ 0.25. LKMA was tested, and the enrichment ratio was ≤ 0.25. With IHNA the enrichment ratio was ≤ 0.25. TMFM was tested, and the enrichment ratio was ≤ 0.25. Variant TCEM has an enrichment ratio of 5.56. With ARFF the enrichment ratio was ≤ 0.25. PDCK was tested, and the enrichment ratio was ≤ 0.25. For VFPV, the enrichment ratio was ≤ 0.25. In the case of DRRW, the enrichment ratio is reported as ≤ 0.25. In the case of LDNA, the enrichment ratio is reported as ≤ 0.25. Work on GIAA yielded an enrichment ratio of 2.08. In the case of GNGN, the enrichment ratio is reported as ≤ 0.25. With SIPR the enrichment ratio was ≤ 0.25. With QKRW the enrichment ratio was ≤ 0.25. VAGT was tested, and the enrichment ratio was ≤ 0.25. In the case of SQWR, the enrichment ratio is reported as ≤ 0.25. For INMD, the enrichment ratio was ≤ 0.25. In the case of NACI, the enrichment ratio is reported as ≤ 0.25. In the case of WAPC, the enrichment ratio is reported as ≤ 0.25. VIVM was tested, and the enrichment ratio was ≤ 0.25. PLYE was tested, and the enrichment ratio was ≤ 0.25. Work on QHNA yielded an enrichment ratio of 4.36. With GDSE the enrichment ratio was ≤ 0.25. DQLR was tested, and the enrichment ratio was ≤ 0.25. In the case of WCML, the enrichment ratio is reported as ≤ 0.25. In the case of KLKE, the enrichment ratio is reported as ≤ 0.25. ISIN was tested, and the enrichment ratio was ≤ 0.25. In the case of LEAR, the enrichment ratio is reported as ≤ 0.25. SYPT was tested, and the enrichment ratio was ≤ 0.25. With FHTY the enrichment ratio was ≤ 0.25. EIQP was tested, and the enrichment ratio was ≤ 0.25. EKLD was tested, and the enrichment ratio was ≤ 0.25. In the case of YFTG, the enrichment ratio is reported as ≤ 0.25. Variant LSCL has an enrichment ratio of 0.9. For GWDK, the enrichment ratio was ≤ 0.25. In the case of FFLF, the enrichment ratio is reported as ≤ 0.25. For DHRP, the enrichment ratio was ≤ 0.25. HFGL was tested, and the enrichment ratio was ≤ 0.25. In the case of YKRT, the enrichment ratio is reported as ≤ 0.25. In the case of LQRW, the enrichment ratio is reported as ≤ 0.25. For WNIL, the enrichment ratio was ≤ 0.25. For MPTF, the enrichment ratio was ≤ 0.25. With ASVT the enrichment ratio was 15.2. In the case of MVRY, the enrichment ratio is reported as ≤ 0.25. In the case of YTWN, the enrichment ratio is reported as ≤ 0.25. SVIH was tested, and the enrichment ratio was ≤ 0.25. AGTH was tested, and the enrichment ratio was 5.3. GQTH was tested, and the enrichment ratio was ≤ 0.25. With VKCQ the enrichment ratio was ≤ 0.25. For LCKE, the enrichment ratio was ≤ 0.25. NKVV was tested, and the enrichment ratio was ≤ 0.25. For TCCQ, the enrichment ratio was 12.5. GAKA was tested, and the enrichment ratio was ≤ 0.25. In the case of DCFI, the enrichment ratio is reported as ≤ 0.25. With PVKV the enrichment ratio was ≤ 0.25. For THHD, the enrichment ratio was ≤ 0.25. For WSLD, the enrichment ratio was ≤ 0.25. In the case of RTPG, the enrichment ratio is reported as ≤ 0.25. For LTWE, the enrichment ratio was ≤ 0.25. For QRCD, the enrichment ratio was ≤ 0.25. MGWN gave an enrichment ratio of 18.9. In the case of HFAW, the enrichment ratio is reported as ≤ 0.25. With HRQT the enrichment ratio was ≤ 0.25. With WIGK the enrichment ratio was ≤ 0.25. For MFYW, the enrichment ratio was ≤ 0.25. PYDD was tested, and the enrichment ratio was ≤ 0.25. RYCS was tested, and the enrichment ratio was ≤ 0.25. With EPDR the enrichment ratio was ≤ 0.25. For HCKN, the enrichment ratio was ≤ 0.25. In the case of SSWQ, the enrichment ratio is reported as 3.41. With KGTC the enrichment ratio was ≤ 0.25. EFAW was tested, and the enrichment ratio was ≤ 0.25. YFYL was tested, and the enrichment ratio was ≤ 0.25. For LNGM, the enrichment ratio was ≤ 0.25. With STQW the enrichment ratio was ≤ 0.25. In the case of MGEL, the enrichment ratio is reported as ≤ 0.25. In the case of TYYK, the enrichment ratio is reported as ≤ 0.25. With SLIM the enrichment ratio was ≤ 0.25. RCSA was tested, and the enrichment ratio was ≤ 0.25. For APLR, the enrichment ratio was ≤ 0.25. KIAR was tested, and the enrichment ratio was ≤ 0.25. For PLMH, the enrichment ratio was ≤ 0.25. With MPSH the enrichment ratio was ≤ 0.25. In the case of PEND, the enrichment ratio is reported as ≤ 0.25. In the case of IWWS, the enrichment ratio is reported as ≤ 0.25. With TNKC the enrichment ratio was ≤ 0.25. In the case of NMDG, the enrichment ratio is reported as ≤ 0.25. In the case of MYQA, the enrichment ratio is reported as ≤ 0.25. VTFY was tested, and the enrichment ratio was ≤ 0.25. In the case of DSDR, the enrichment ratio is reported as ≤ 0.25. In the case of YNNM, the enrichment ratio is reported as ≤ 0.25. With LRPH the enrichment ratio was ≤ 0.25. IMRY was tested, and the enrichment ratio was ≤ 0.25. In the case of WRLV, the enrichment ratio is reported as ≤ 0.25. With PYAS the enrichment ratio was ≤ 0.25. With VWPL the enrichment ratio was ≤ 0.25. ELVQ was tested, and the enrichment ratio was ≤ 0.25. MADS was tested, and the enrichment ratio was ≤ 0.25. In the case of HKYW, the enrichment ratio is reported as ≤ 0.25. In the case of HKHD, the enrichment ratio is reported as ≤ 0.25. With RGLT the enrichment ratio was ≤ 0.25. With PFMS the enrichment ratio was ≤ 0.25. In the case of VMSI, the enrichment ratio is reported as ≤ 0.25. EKSL was tested, and the enrichment ratio was ≤ 0.25. In the case of GNEW, the enrichment ratio is reported as ≤ 0.25. In the case of YKFY, the enrichment ratio is reported as ≤ 0.25. KRSP was tested, and the enrichment ratio was ≤ 0.25.
